From PubChem BioAssay AID651820 (National Center for Advancing Translational Sciences (NCATS), 2012)
Values joined by “and” are separate entries in the source; they are usually repeats but may differ in a detail not shown here. Equal entries are not always repeated. About 12,000 (3.5%) of roughly 340,000 compounds were called active. Inconclusive results, whose numbers are uncertain, are shown with a selection of clear calls. Calls follow the shape of the dose curve; as a rule, active = well fitted inhibition curve with a large enough effect; inconclusive = small, poorly fitted or top-dose-only effect, or another doubt; inactive = no such curve, though single readings can be large or run the other way. Where the call is inconclusive, the potency comes from a doubtful curve fit.

assay: qHTS Assay for Inhibitors of Hepatitis C Virus (HCV); settings: Huh7.5.1 HCVcc-Cre (HCVcc is cell-culture hepatitis C virus) infection, luciferase reporter, 44 h; activity change, negative = inhibition: at 41.8 µM (top of the series) unless noted
How it was run: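 Infectious HCVcc-Cre (~0.5 moi) was added to cells just after compound, with cells seeded 4 h earlier at 1,000 per well. Luciferase activity after 44 h culture reported infection; substrate was incubated 15 min at room temperature before reading.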
% is scaled to controls: 0 for no effect and ±100 for the full control effect; potency is read from the fitted curve at half-maximal effect; tags tell the direction and shape of the fitted curve.

Row | Structure (SMILES) | activity change, negative = inhibition | Potency
1 | O=C(CSc1ccc(-c2ccccn2)nn1)c1ccc(F)cc1 | inactive: 19.9% | –
2 | O=C(CSc1ncnc2c1nnn2-c1ccc(F)cc1)NCC1CCCO1 (stereo not given) | inactive: -3.1% | –
3 | O=C(NCC1CC1)c1ccc2c3n(nc2c1)-c1ccc(Cl)cc1CO3 | – | inconclusive: 25.1 µM [inhibitor, single point]
4 | COc1ccc(CNS(=O)(=O)c2ccc(-c3cnc(C4CC4)o3)cc2)cc1 | – | inconclusive: 11.2 µM [inhibitor, single point]
5 | Cc1ccc(-c2cc(-c3ccc(F)cc3)c(C#N)c(N)n2)o1 | – | inconclusive: 0.562 µM [inhibitor, full curve, poor fit]
6 | COc1ccc(C(C(=O)NC2CCCC2)N(C(=O)c2snc(-c3ccc(F)cc3)c2N)c2cccc(F)c2)cc1 (stereo not given) | – | active: 10 µM
7 | O=C(CCC(=O)Nc1ccccc1Cl)NNC(=O)C1CCCCC1 | inactive: 14.8% | –
8 | Cc1cc(C)c2sc(NC(=O)C3=COCCO3)nc2c1 | – | inconclusive: 10 µM [inhibitor, partial curve]
9 | CCOc1ccc(CNCc2cccnc2)cc1 | – | inconclusive: 35.5 µM [inhibitor, single point]
10 | Cc1ccnc(N2CCCC(C(=O)Nc3cc(F)ccc3C)C2)n1 (stereo not given) | – | inconclusive: 1 µM [inhibitor, partial curve]
11 | S=C1NCCc2ccc(Cl)cc2C1c1ccccc1 (stereo not given) | – | inconclusive: 22.4 µM [inhibitor, single point]
12 | CCCc1ccc(OC(=O)c2ccc(O)cc2Cl)cc1 | inactive: 3.54% | –
13 | COc1ccccc1NC(=O)CSc1ccc(-c2cccs2)nn1 | – | inconclusive: 31.6 µM [inhibitor, single point]
14 | COc1ccc(Nc2ncc(C(=O)N3CCN(c4ccc(F)cc4)CC3)c3ccccc23)cc1 | – | active: 11.2 µM
15 | CCc1ccc(OCCn2cccn2)cc1 | inactive: 6.04% | –
16 | COc1ccc(N(CC(=O)NCCC(C)C)C(=O)c2snc(C(=O)NC3CCCCC3)c2N)c(OC)c1 | – | inconclusive: 11.2 µM [inhibitor, single point]
17 | CCN(CC)CCN(C(=O)c1ccc([N+](=O)[O-])cc1)c1nc2c(OC)cccc2s1 | inactive: -7.72% | –
18 | Cc1ccc(C(=O)NC2CCCCCC2)o1 | inactive: -18.4% | –
19 | CN(C)CCNC(=O)/C(=C/c1cccc([N+](=O)[O-])c1)NC(=O)c1ccccc1 | inactive: 15.7% | –
20 | CC1(C)Cc2cccc(OCC(=O)N3CCN(c4cccc(C(F)(F)F)c4)CC3)c2O1 | – | inconclusive: 8.91 µM [inhibitor, partial curve, poor fit]
21 | Cc1ccc(CNC(=O)C2=CCN(S(=O)(=O)c3ccc(C)cc3)CC2)cc1 | inactive: 1.88% [at 8.37 µM] | –
22 | CCN(CC)CCNC(=O)c1ccc(NC(=O)c2cc(S(=O)(=O)N3CCCCC3)ccc2C)cc1 | – | inconclusive: 31.6 µM [inhibitor, single point]
23 | Cc1cccc(-n2c(SCC(=O)N3CCC(C(=O)O)CC3)nc3ccccc3c2=O)c1C | – | inconclusive: 5.62 µM [inhibitor, single point]
24 | CC(C)C(=O)Nc1ncc(Cc2ccccc2Cl)s1 | – | inconclusive: 10 µM [inhibitor, partial curve]

Row | Structure (SMILES) | activity change, negative = inhibition | Potency
25 | O=C(O)C(Cc1ccc(O)cc1)N1C(=O)C2CCCCC2C1=O (stereo not given) | inactive: 5.81% | –
26 | COc1ccc(-c2ccc(/C=C3\C(=O)N(c4ccccc4)N=C3c3ccccc3)o2)c([N+](=O)[O-])c1 | inactive: 2.79% | –
27 | CC(c1nnc(SCC(=O)Nc2sccc2C#N)n1-c1ccc(Cl)cc1)N(C)C (stereo not given) | – | active: 22.4 µM
28 | Fc1ccc(-c2n[nH]c(=S)n2Cc2ccccc2)cc1 | inactive: 17.2% | –
29 | N#Cc1ccc(CN2CCN(C(=O)CCNS(=O)(=O)c3ccc(F)c(Cl)c3)CC2)cc1 | – | inconclusive: 11.2 µM [inhibitor, partial curve]
30 | CC1(C)Cc2c(sc3c2c(=N)n(Cc2ccco2)c(=O)n3Cc2ccc(F)cc2)CO1 | – | inconclusive: 14.1 µM [inhibitor, single point]
31 | CCOC(=O)c1ccc(S(=O)(=O)N2CCN(CC(O)COc3ccc(C#N)cc3)CC2)cc1 (stereo not given) | – | inconclusive: 31.6 µM [inhibitor, single point]
32 | COc1ccccc1/C=N/Nc1cc(N(C)C)nc(N(C)C)n1 | – | inconclusive: 31.6 µM [inhibitor, single point]
33 | CCN1CCN(c2cc(C)c3cc(NC(=S)N4CCN(c5ccccc5)CC4)ccc3n2)CC1 | – | inconclusive: 10 µM [inhibitor, partial curve]
34 | Cc1cc(C(=O)N/N=C/c2ccc(-c3ccc([N+](=O)[O-])cc3Cl)o2)n[nH]1 | – | inconclusive: 17.8 µM [inhibitor, partial curve]
35 | CCCc1cc(C(=O)Nc2ccc(C(=O)c3ccccc3)cc2)n(C)n1 | – | active: 15.8 µM
36 | O=C(COc1ccc2ccccc2c1Br)Nc1ccncc1 | – | inconclusive: 12.6 µM [inhibitor, single point]
37 | NS(=O)(=O)c1ccc(NC(=S)NC(=O)c2ccc(-c3ccccc3)cc2)cc1 | – | inconclusive: 11.2 µM [inhibitor, single point]
38 | O=C(Oc1cc(=O)oc2ccccc12)c1ccccc1 | – | inconclusive: 2 µM [inhibitor, full curve]
39 | O=[N+]([O-])c1c(C(Cl)Cl)nn(-c2ccccc2)c1N1CCCC1 | – | inconclusive: 12.6 µM [inhibitor, single point]
40 | CC(C)Oc1ccc(C(=O)NCC(=O)N2CCN(S(=O)(=O)/C=C/c3ccccc3)CC2)cc1 | – | inconclusive: 14.1 µM [inhibitor, single point]
41 | CC1Cc2cc(/C(O)=C3/C(=O)C(=O)N(Cc4cccnc4)C3c3cccc(O)c3)ccc2O1 (stereo not given) | inactive: 8.08% | –
42 | O=C(O)c1nc(-c2ccccc2)n(-c2cccc(C(F)(F)F)c2)n1 | – | inconclusive: 0.501 µM [inhibitor, partial curve, poor fit]
43 | CC(=O)/C(C#N)=C1\NC(=O)C(Cc2cc(Cl)ccc2Cl)S1 (stereo not given) | inactive: -7.57% | –
44 | COc1ccc(S(=O)(=O)n2nc(OC(=O)c3ccco3)cc2N)cc1 | inactive: 12.1% | –
45 | COc1ccc(-c2c3c(=O)n(C)c(=O)n(C)c3cn2-c2cc(OC)ccc2OC)cc1 | – | inconclusive: 31.6 µM [inhibitor, single point]
46 | Cc1nn(-c2ccc(F)cc2)c2nc(N)c(C#N)c(-c3ccc(O)c(O)c3)c12 | – | inconclusive: 31.6 µM [inhibitor, single point]
47 | CCOc1ccc(C=C2C(=O)NC(=S)NC2=O)cc1OCC | inactive: -12.9% | –
48 | Cc1ccnc(Nc2nc(-c3ccc(O)cc3)cs2)c1 | – | inconclusive: 8.91 µM [inhibitor, single point]

Row | Structure (SMILES) | activity change, negative = inhibition | Potency
49 | O=C(Nc1nc2ccccc2[nH]1)c1ccc(OC(F)F)cc1 | – | inconclusive: 3.55 µM [inhibitor, partial curve]
50 | CC[C@H](C)[C@H]1CNC(=O)C(=O)N1CC1CCN(CCc2ccccc2)CC1 | inactive: 1.25% | –
51 | CCCn1c(NC(=O)c2cccc(C)c2C)nc2ccccc21 | – | active: 11.2 µM
52 | CN1C[C@@H]2[C@@H]3C(=O)N(Cc4ccccc4)C(=O)[C@@H]3[C@](Cc3ccccc3)(C1=O)N2C(=O)c1ccccc1 | inactive: 19.5% | –
53 | O=c1onc(-c2ccccc2)n1-c1cc(Cl)cc(Cl)c1 | inactive: -8.07% | –
54 | Cc1ccc(N(CC(=O)Nc2ccccc2-c2ccccc2)S(=O)(=O)c2ccccc2)cc1 | – | active: 10 µM
55 | CCCCCCn1c(O)c(/C=C2\C=NN=C2c2ccccc2)sc1=S | – | inconclusive: 5.01 µM [inhibitor, single point]
56 | COC(=O)c1sccc1NC(=O)c1c(F)c(F)c(F)c(F)c1F | – | active: 12.6 µM
57 | CCCc1cc(=O)oc2c(C)c(OCC(=O)Nc3ccccn3)ccc12 | – | inconclusive: 5.62 µM [inhibitor, single point]
58 | COc1ccc(NC(=O)c2ccc(CN3CCN(c4ccccc4)CC3)cc2)cc1OC | – | inconclusive: 35.5 µM [inhibitor, single point]
59 | Cc1cc(C)c2c(N)c(C(=O)c3ccc(Cl)c(Cl)c3)sc2n1 | – | inconclusive: 31.6 µM [inhibitor, single point]
60 | Cc1cc(OCCOCCN2CCCC2)ccc1C(C)C | – | inconclusive: 28.2 µM [inhibitor, single point]
61 | O=C1[C@@H]2Cc3c([nH]c4ccccc34)C(c3ccc([N+](=O)[O-])cc3)N2C(=O)CN1C1CC1 (stereo not given in full) | – | inconclusive: 11.2 µM [inhibitor, partial curve]
62 | COc1cc(C=c2c3ccccc3n3c2cc(-c2ccccc2)[n+]3C)cc(OC)c1OC | – | inconclusive: 14.1 µM [inhibitor, single point]
63 | CN(C)c1nc(-c2ccccc2)ncc1S(=O)(=O)c1ccccc1 | – | inconclusive: 10 µM [inhibitor, partial curve]
64 | O=Cc1ccccc1OCCOc1ccccc1C=O | – | inconclusive: 15.8 µM [inhibitor, single point]
65 | CC(=O)c1cccc(NC(=O)CSc2nc3ccccc3c(=O)n2CCCN2CCOCC2)c1 | inactive: -2.55% | –
66 | COC(=O)c1c(NC(=O)c2cccc([N+](=O)[O-])c2)sc(C(N)=O)c1C | inactive: 4.16% | –
67 | COc1ccc(NC(=O)CN2C(=O)NC3(CCCC3)C2=O)cc1S(=O)(=O)N1CCCCC1 | inactive: 1.25% | –
68 | Cc1ccc(-c2nc3ccccc3c(=O)n2O)cc1 | inactive: 8.34% | –
69 | O=C(Nc1ccc(N2CCN(C(=O)c3ccco3)CC2)c(Cl)c1)c1c(F)c(F)c(F)c(F)c1F | – | inconclusive: 31.6 µM [inhibitor, single point] and inconclusive: 15.8 µM [inhibitor, single point]
70 | CCCc1cc(-c2ccc(O)c(OCC)c2)c(C#N)c(N)n1 | – | inconclusive: 7.08 µM [inhibitor, partial curve]
